In the assay the target is T1, β-cardiac myosin (β-CM), synthetic thick filaments (Sus scrofa, UniProt P79293 1-1935; Q5EFJ2 1-150; Q8MHY0 1-166).
T1 construct: β-cardiac myosin, Sus scrofa, UniProt P79293 (first of the three entries printed for β-CM); β-cardiac myosin, Sus scrofa, UniProt Q5EFJ2 (second entry printed for β-CM); β-cardiac myosin, Sus scrofa, UniProt Q8MHY0 (third entry printed for β-CM); full-length β-CM assembled into synthetic thick filaments (20 mM HEPES pH 7.4, 75 mM NaCl, 2 mM MgCl2, 0.5 mM EDTA, 0.5 mM DTT, 30 min on ice); also called …
T1 sequence (P79293 whole entry, chain 1 of 3): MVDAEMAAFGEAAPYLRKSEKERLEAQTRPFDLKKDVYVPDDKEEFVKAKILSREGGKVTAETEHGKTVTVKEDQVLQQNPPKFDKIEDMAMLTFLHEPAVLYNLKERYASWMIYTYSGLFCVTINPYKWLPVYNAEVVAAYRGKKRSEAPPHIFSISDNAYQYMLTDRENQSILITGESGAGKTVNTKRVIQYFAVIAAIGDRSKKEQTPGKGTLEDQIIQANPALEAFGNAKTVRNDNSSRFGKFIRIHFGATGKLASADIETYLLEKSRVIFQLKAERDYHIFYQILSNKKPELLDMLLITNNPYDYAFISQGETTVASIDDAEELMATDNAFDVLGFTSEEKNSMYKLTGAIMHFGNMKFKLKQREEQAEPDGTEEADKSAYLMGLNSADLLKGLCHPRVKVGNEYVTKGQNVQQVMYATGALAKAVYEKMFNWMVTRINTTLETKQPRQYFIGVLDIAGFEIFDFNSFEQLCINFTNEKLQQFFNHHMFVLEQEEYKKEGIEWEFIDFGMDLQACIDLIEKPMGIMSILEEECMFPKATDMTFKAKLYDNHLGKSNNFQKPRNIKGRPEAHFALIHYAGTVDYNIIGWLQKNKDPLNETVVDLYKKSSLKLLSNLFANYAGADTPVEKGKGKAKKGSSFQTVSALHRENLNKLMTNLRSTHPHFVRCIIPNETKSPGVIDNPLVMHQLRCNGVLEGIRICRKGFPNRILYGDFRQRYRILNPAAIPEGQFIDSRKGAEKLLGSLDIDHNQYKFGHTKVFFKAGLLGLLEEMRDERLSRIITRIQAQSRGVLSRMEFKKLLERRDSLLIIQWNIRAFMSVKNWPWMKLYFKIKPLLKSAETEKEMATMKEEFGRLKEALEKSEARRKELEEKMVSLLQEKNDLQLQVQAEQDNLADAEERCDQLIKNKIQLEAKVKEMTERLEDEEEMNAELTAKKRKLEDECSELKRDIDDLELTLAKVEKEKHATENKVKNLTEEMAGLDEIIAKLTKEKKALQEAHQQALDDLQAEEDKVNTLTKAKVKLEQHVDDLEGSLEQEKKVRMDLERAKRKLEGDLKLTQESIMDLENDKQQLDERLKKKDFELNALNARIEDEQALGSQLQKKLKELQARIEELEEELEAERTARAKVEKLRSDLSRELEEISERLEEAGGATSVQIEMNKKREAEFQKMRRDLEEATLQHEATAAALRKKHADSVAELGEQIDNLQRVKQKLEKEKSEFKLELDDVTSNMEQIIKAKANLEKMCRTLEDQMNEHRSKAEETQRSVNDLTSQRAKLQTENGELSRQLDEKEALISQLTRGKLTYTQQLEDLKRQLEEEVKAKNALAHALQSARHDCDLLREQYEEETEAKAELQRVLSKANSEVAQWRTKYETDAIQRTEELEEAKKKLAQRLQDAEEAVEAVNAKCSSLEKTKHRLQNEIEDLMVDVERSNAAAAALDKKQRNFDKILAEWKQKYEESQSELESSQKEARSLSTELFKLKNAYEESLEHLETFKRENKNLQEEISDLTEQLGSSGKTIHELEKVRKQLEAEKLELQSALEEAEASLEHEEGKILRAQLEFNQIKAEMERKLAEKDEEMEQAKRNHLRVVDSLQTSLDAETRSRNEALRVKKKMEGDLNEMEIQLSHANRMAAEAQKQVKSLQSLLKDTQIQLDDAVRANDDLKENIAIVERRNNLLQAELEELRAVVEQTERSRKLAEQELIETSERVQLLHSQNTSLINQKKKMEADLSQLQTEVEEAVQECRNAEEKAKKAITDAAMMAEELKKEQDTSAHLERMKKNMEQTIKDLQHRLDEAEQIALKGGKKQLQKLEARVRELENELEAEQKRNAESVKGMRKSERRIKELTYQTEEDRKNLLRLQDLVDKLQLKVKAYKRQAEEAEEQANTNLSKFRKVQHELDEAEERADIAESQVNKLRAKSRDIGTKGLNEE
T1 sequence (chain, as listed by the source, chain 2 of 3): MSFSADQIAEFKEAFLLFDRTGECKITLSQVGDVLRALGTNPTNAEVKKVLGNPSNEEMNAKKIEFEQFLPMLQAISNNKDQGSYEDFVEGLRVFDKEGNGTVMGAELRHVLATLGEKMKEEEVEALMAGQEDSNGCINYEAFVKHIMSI
T1 sequence (chain, as listed by the source, chain 3 of 3): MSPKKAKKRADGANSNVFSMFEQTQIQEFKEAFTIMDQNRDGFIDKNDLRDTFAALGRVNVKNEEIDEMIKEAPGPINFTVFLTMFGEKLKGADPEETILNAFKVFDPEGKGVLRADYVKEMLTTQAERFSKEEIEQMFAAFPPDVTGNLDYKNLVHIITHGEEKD
The assay can be described thus: co-sedimentation; high-speed cosedimentation; 2.5 µM β-CM as synthetic thick filaments with 0–30 µM C0–C2 or C2; 20 mM HEPES pH 7.4, 75 mM NaCl, 2 mM MgCl2, 0.5 mM EDTA, 0.5 mM DTT; 30 min at room temperature; pellet fractions by SDS-PAGE against a protein standard range; quadratic fit. The note with it: both partners purified.

Among the data in publication PMC8584774, “Assessment of the Contribution of a Thermodynamic and Mechanical Destabilization of Myosin-Binding Protein C Domain C2 to the Pathomechanism of Hypertrophic Cardiomyopathy-Causing Double Mutation MYBPC3^Δ25bp/D389V” (International Journal of Molecular Sciences, 2021) are Kd values, retold here.

As a reminder, the Kd is the constant that tells how readily two partners part at equilibrium. Low readings indicate higher affinity, high ones lower affinity.

B1: MyBPC C0–C2 D389V (domain or fragment)
chain: not shown
notes: D389V made by site-directed whole plasmid mutagenesis; the variant occurs in human carriers; also called construct C0–C2 D389V; source: E. coli Rosetta(DE3)pLysS, purified (Ni-NTA, HiTrap SP cation exchange)
Molecule B1 displayed a Kd of 14.8 ± 7.7 µM.
